Test results from the supplement of paper PMC8728848.
This is one part of the list.

Experiments:
Test in all cases: glycan array binding signal (z-score within array); higher = stronger binding
Settings in all cases: glycan notation: IUPAC condensed, linker removed
[1] = biological target: Fuc(a1-2)Gal(b1-4)GlcNAc(b1-3)Gal(b1-4)GlcNAc(b1-2)Man(a1-3)[Fuc(a1-2)Gal(b1-4)GlcNAc(b1-3)Gal(b1-4)GlcNAc(b1-2)Man(a1-6)]Man(b1-4)GlcNAc(b1-4)GlcNAc
Outline: (§1)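 The binding signal is a Z-score computed within each array. Data were drawn from 3228 arrays in the Consortium for Functional Glycomics database, restricted to those with a known protein sequence. Scores were averaged over arrays of the same protein sequence at different concentrations or buffers, and over linkers, and negative values can be taken as non-binding.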

[2] = biological target: Fuc(a1-2)Gal(b1-4)GlcNAc(b1-3)Gal(b1-4)GlcNAc(b1-3)Gal(b1-4)GlcNAc
Outline: as §1

[3] = biological target: Fuc(a1-2)Gal(b1-4)GlcNAc(b1-3)GalNAc
Outline: as §1

[4] = biological target: Fuc(a1-2)Gal(b1-4)GlcNAc(b1-3)[Fuc(a1-2)Gal(b1-4)GlcNAc(b1-6)]GalNAc
Outline: as §1

[5] = biological target: Fuc(a1-2)Gal(b1-4)GlcNAc(b1-3)[Fuc(a1-3)[Gal(b1-4)]GlcNAc(b1-6)]Gal(b1-4)Glc
Outline: as §1

[6] = biological target: Fuc(a1-2)Gal(b1-4)GlcNAc(b1-6)GalNAc
Outline: as §1

[7] = biological target: Fuc(a1-2)Gal(b1-4)GlcNAc6S
Outline: as §1

[8] = biological target: Fuc(a1-2)Gal(b1-4)[Fuc(a1-3)]GlcNAc
Outline: as §1

[9] = biological target: Fuc(a1-2)Gal(b1-4)[Fuc(a1-3)]GlcNAc(b1-2)Man(a1-3)[Fuc(a1-2)Gal(b1-4)[Fuc(a1-3)]GlcNAc(b1-2)Man(a1-6)]Man(b1-4)GlcNAc(b1-4)[Fuc(a1-6)]GlcNAc
Outline: as §1

[10] = biological target: Fuc(a1-2)Gal(b1-4)[Fuc(a1-3)]GlcNAc(b1-2)[Fuc(a1-2)Gal(b1-4)[Fuc(a1-3)]GlcNAc(b1-4)]Man(a1-3)[Fuc(a1-2)Gal(b1-4)[Fuc(a1-3)]GlcNAc(b1-2)Man(a1-6)]Man(b1-4)GlcNAc(b1-4)GlcNAc
Outline: as §1

[11] = biological target: Fuc(a1-2)Gal(b1-4)[Fuc(a1-3)]GlcNAc(b1-3)Gal(b1-4)[Fuc(a1-3)]GlcNAc
Outline: as §1

[12] = biological target: Fuc(a1-2)Gal(b1-4)[Fuc(a1-3)]GlcNAc(b1-3)Gal(b1-4)[Fuc(a1-3)]GlcNAc(b1-3)Gal(b1-4)[Fuc(a1-3)]GlcNAc
Outline: as §1

[13] = biological target: Fuc(a1-2)Gal(b1-4)[Fuc(a1-3)]GlcNAc(b1-3)GalNAc
Outline: as §1

[14] = biological target: Fuc(a1-2)Gal(b1-4)[Fuc(a1-3)]GlcNAc(b1-3)[Neu5Ac(a2-6)Gal(b1-4)GlcNAc(b1-6)]Gal(b1-4)Glc
Outline: as §1

[15] = biological target: Fuc(a1-2)Gal3S(b1-4)GlcNAc
Outline: as §1

[16] = biological target: Fuc(a1-2)Gal6S(b1-3)GlcNAc
Outline: as §1

[17] = biological target: Fuc(a1-2)Gal6S(b1-3)GlcNAc6S
Outline: as §1

Fuc(a1-2)Gal6S(b1-4)Glc = biological target: Fuc(a1-2)Gal6S(b1-4)Glc
Outline: as §1

[18] = biological target: Fuc(a1-2)Gal6S(b1-4)Glc6S
Outline: as §1

Fuc(a1-2)[Gal(a1-3)]Gal = biological target: Fuc(a1-2)[Gal(a1-3)]Gal
Outline: as §1

[19] = biological target: Fuc(a1-2)[Gal(a1-3)]Gal(b1-3)GalNAc
Outline: as §1

[20] = biological target: Fuc(a1-2)[Gal(a1-3)]Gal(b1-3)GalNAc(b1-3)Gal(a1-4)Gal(b1-4)Glc
Outline: as §1

[21] = biological target: Fuc(a1-2)[Gal(a1-3)]Gal(b1-3)GlcNAc
Outline: as §1

[22] = biological target: Fuc(a1-2)[Gal(a1-3)]Gal(b1-3)GlcNAc(b1-2)Man(a1-3)[Fuc(a1-2)[Gal(a1-3)]Gal(b1-3)GlcNAc(b1-2)Man(a1-6)]Man(b1-4)GlcNAc(b1-4)GlcNAc
Outline: as §1

[23] = biological target: Fuc(a1-2)[Gal(a1-3)]Gal(b1-3)GlcNAc(b1-2)Man(a1-3)[Fuc(a1-2)[Gal(a1-3)]Gal(b1-3)GlcNAc(b1-2)Man(a1-6)]Man(b1-4)GlcNAc(b1-4)[Fuc(a1-6)]GlcNAc
Outline: as §1

[24] = biological target: Fuc(a1-2)[Gal(a1-3)]Gal(b1-3)GlcNAc(b1-3)GalNAc
Outline: as §1

[25] = biological target: Fuc(a1-2)[Gal(a1-3)]Gal(b1-3)GlcNAc(b1-6)GalNAc
Outline: as §1

[26] = biological target: Fuc(a1-2)[Gal(a1-3)]Gal(b1-4)Glc
Outline: as §1

[27] = biological target: Fuc(a1-2)[Gal(a1-3)]Gal(b1-4)GlcNAc
Outline: as §1

[28] = biological target: Fuc(a1-2)[Gal(a1-3)]Gal(b1-4)GlcNAc(b1-2)Man
Outline: as §1

B1: NKR-PIC (Mus musculus) (protein)
chain: GTGQKPSREKCCVFIQENLNKTTDCSVNLECPQDWLLHRDKCFHVSQVSNTWEEGQADCGRKGATLLLIQDQEELRFLLDSIKEKYNSFWIGLRFTLPDMNWKWINGTTFNSDVLKITGVTENGSCASILGDKVTPESCASDNRWICQKELNHETPSNDSGT
glycan array binding signal (z-score) [1]: -0.27 | glycan array binding signal (z-score) [2]: -0.32 | glycan array binding signal (z-score) [3]: -0.114 | glycan array binding signal (z-score) [4]: -0.311 | glycan array binding signal (z-score) [5]: -0.343 | glycan array binding signal (z-score) [6]: -0.261 | glycan array binding signal (z-score) [7]: -0.32 | glycan array binding signal (z-score) [8]: -0.316 | glycan array binding signal (z-score) [9]: -0.278 | glycan array binding signal (z-score) [10]: -0.33 | glycan array binding signal (z-score) [11]: -0.233 | glycan array binding signal (z-score) [12]: -0.285 | glycan array binding signal (z-score) [13]: -0.377 | glycan array binding signal (z-score) [14]: -0.323 | glycan array binding signal (z-score) [15]: -0.393 | glycan array binding signal (z-score) [16]: -0.248 | glycan array binding signal (z-score) [17]: -0.251 | glycan array binding signal (z-score) (Fuc(a1-2)Gal6S(b1-4)Glc): -0.317 | glycan array binding signal (z-score) [18]: -0.261 | glycan array binding signal (z-score) (Fuc(a1-2)[Gal(a1-3)]Gal): -0.304 | glycan array binding signal (z-score) [19]: -0.31 | glycan array binding signal (z-score) [20]: -0.329 | glycan array binding signal (z-score) [21]: -0.285 | glycan array binding signal (z-score) [22]: -0.385 | glycan array binding signal (z-score) [23]: -0.323 | glycan array binding signal (z-score) [24]: -0.407 | glycan array binding signal (z-score) [25]: -0.38 | glycan array binding signal (z-score) [26]: -0.406 | glycan array binding signal (z-score) [27]: 0.014 | glycan array binding signal (z-score) [28]: -0.359
